Experimental data from PMC5572923.
Positions count from the first letter of the chain named. Names may count otherwise. Results are given in words; binding and its absence hold for the method and conditions named. In cells and extracts the contact can be indirect. Some results given as binding are weak or reduced against the parent protein; the word gives no strength. Where a sequence is shown, tags or fusion partners need not be part of it. Values belong to the binder of their own block, whether it stands above or below them.

Experiments:
[1] = target: T1, SFB-SGT1 4A (S17A/T233A/S249A/S289A), phospho-dead mutant (human) (UniProt Q9Y2Z0); assay: co-IP; HEK293T co-transfected with SFB-tagged SGT1 (WT or 4A) and a Myc-tagged partner; precipitation with streptavidin (SBP) beads; blot with Myc antibody; NETN buffer (Fig. 1B, 5A, 6E)
T1 sequence: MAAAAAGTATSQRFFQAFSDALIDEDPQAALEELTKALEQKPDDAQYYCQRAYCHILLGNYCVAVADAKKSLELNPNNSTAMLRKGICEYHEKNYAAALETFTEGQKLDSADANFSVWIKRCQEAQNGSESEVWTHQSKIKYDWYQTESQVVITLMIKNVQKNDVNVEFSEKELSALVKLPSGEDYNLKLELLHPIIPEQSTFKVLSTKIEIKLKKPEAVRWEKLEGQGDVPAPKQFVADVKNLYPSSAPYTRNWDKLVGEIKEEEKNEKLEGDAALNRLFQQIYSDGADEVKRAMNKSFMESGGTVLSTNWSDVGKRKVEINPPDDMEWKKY

[2] = target: T2, SFB-SGT1 (triple-tagged SGT1, wild type), in HEK293T (human) (UniProt Q9Y2Z0); assay: as above
T2 sequence: T1 sequence with A17S, A233T, A249S, A289S

[3] = target: T3, SFB-SGT1 (triple-tagged SGT1, wild type), in HeLa (human) (UniProt Q9Y2Z0); assay: condition: only early stages of mitosis after release from nocodazole; co-IP; HeLa cells expressing SFB-SGT1, nocodazole arrest and release, early stages of mitosis; streptavidin beads; blots with PHLPP1 and RNF41 antibodies (Fig. 7A)
T3 sequence: T1 sequence with A17S, A233T, A249S, A289S

[4] = target: T3, SFB-SGT1 (triple-tagged SGT1, wild type), in HeLa (human); assay: co-IP; HeLa cells expressing SFB-SGT1, nocodazole arrest and release, later stages of mitosis (post-kinetochore assembly); streptavidin beads; blots with PHLPP1 and RNF41 antibodies (Fig. 7A)
[5] = target: T4, SFB-RNF41 (triple-tagged RNF41) (human) (UniProt Q9H4P4); assay: co-IP; cells with SFB-RNF41 and vector control; precipitation with streptavidin beads; blot with SGT1 antibody (Fig. 5E); also cells with control or PHLPP1 shRNA, immunoprecipitation 'as indicated' (Fig. 5D)
T4 sequence: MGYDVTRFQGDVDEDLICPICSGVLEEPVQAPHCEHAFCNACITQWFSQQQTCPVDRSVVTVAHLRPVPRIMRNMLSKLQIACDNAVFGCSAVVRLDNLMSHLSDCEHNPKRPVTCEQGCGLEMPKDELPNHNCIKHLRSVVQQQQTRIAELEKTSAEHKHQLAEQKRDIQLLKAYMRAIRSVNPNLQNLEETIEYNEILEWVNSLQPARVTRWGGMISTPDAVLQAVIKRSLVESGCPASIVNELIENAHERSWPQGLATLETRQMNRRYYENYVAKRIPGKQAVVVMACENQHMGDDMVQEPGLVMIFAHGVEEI

[6] = target: T4, SFB-RNF41 (triple-tagged RNF41) (human); assay: condition: only with exogenous Myc-tagged PHLPP1 expressed; co-IP; as a4, but cells transfected with Myc-tagged PHLPP1 (Fig. 5E)

binding [1]: no binding
binding [2]: binds
B1: Myc-RNF41 wild type (enzyme, UniProt Q9H4P4 1-317)
chain: T4 sequence

binding [2]: binds
B2: Myc-RNF41 C34A (catalytically inactive mutant) (enzyme, UniProt Q9H4P4 1-317)
chain: T4 sequence with C34A

binding [3]: no binding
binding [4]: binds
B3: RNF41, endogenous in HeLa (enzyme, UniProt Q9H4P4 1-317)
chain: T4 sequence

binding [5]: binds
binding [6]: no binding
B4: SGT1 (suppressor of G2 allele of SKP1 homolog), endogenous (protein, UniProt Q9Y2Z0 1-365)
chain: MAAAAAGTATSQRFFQSFSDALIDEDPQAALEELTKALEQKPDDAQYYCQRAYCHILLGNYCVAVADAKKSLELNPNNSTAMLRKGICEYHEKNYAAALETFTEGQKLDIETGFHRVGQAGLQLLTSSDPPALDSQSAGITGADANFSVWIKRCQEAQNGSESEVWTHQSKIKYDWYQTESQVVITLMIKNVQKNDVNVEFSEKELSALVKLPSGEDYNLKLELLHPIIPEQSTFKVLSTKIEIKLKKPEAVRWEKLEGQGDVPTPKQFVADVKNLYPSSSPYTRNWDKLVGEIKEEEKNEKLEGDAALNRLFQQIYSDGSDEVKRAMNKSFMESGGTVLSTNWSDVGKRKVEINPPDDMEWKKY
